Some of the results follow. These are further read-outs of the screen, such as a control signal, another cell line or another target. No call is given for them. For part of these data: Most of these compounds were active or inconclusive in the main read-out, so they are no random draw. Potencies come from curve fits of mixed quality, noted in brackets.
Assays:
[1] = qHTS drug screen for cell cycle checkpoint inhibitors in PARPi-resistant BRCA-mutant ovarian cancer cell lines. (AID 1963452); conditions: PEO1/OlaR viability, CellTiter-Glo luminescence, 96 h
How it was run: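 PEO1, PEO4 and PEO1/OlaR ovarian cancer cells, 600 per well, exposed 96 h at 37C to a dilution series. Viability read by CellTiter-Glo luminescence, normalized to DMSO and empty wells; activity summarized as Z-AUC.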

[2] = qHTS for identification of novel therapeutic agents for treatment of microphthalmiaassociated transcription factor (MiT) renal cell carcinoma (RCC) (AID 1963991); conditions: CellTiter-Glo, 48 h; for z-score: stronger effect = lower value
How it was run: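 Three TFE3-fusion RCC cell lines (UOK109, UOK124, UOK145), 500 cells/well, were exposed to the 1912-compound MIPE 4.0 library for 48 hours at 37 C. Viability was read by CellTiter-Glo luminescence, normalised to DMSO (100%) and empty wells (0%), with 11-concentration curve fits.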

[3] = measured here: PEO1 parental viability
[4] = TFE3-RCC UOK109 viability, measured here: UOK109 Z-AUC
[5] = TFE3-RCC viability, measured here: UOK124 Z-AUC
[6] = TFE3-RCC viability, measured here: UOK124 cell viability
[7] = TFE3-RCC viability, measured here: UOK145 Z-AUC
[8] = TFE3-RCC viability, measured here: UOK145 cell viability
Tags tell the direction and shape of the fitted curve.

| Compound | AC50 [1, 3] | AC50 ([1]; measured here: PEO4 viability) | z-score [2, 4] | z-score [2, 5] | AC50 [2, 6] | z-score [2, 7] | AC50 [2, 8] |
| --- | --- | --- | --- | --- | --- | --- | --- |
| CC(N[C@H]1CCCC[C@H]1NC(=O)c1ccc(Cl)cc1)c1cccc2ccccc12 (some centres undefined) | 17.4 µM [falling, partial curve] | 17.4 µM [falling, single point] | -1.53 | 0.602 | 16.6 µM [falling, partial curve] | -0.136 | 2.96 µM [falling, partial curve, poor fit] |
| C[C@@H](N)c1ccc(C(=O)Nc2ccnc3[nH]ccc23)cc1 | 15.5 µM [falling, single point] | 15.5 µM [falling, single point] | 1.19 | -1.27 | 23.5 µM [falling, single point] | 0.248 | 23.5 µM [falling, partial curve] |
| COc1cc([C@@H]2c3cc4c(cc3[C@@H](O[C@@H]3O[C@@H]5CO[C@@H](C)O[C@@H]5[C@H](O)[C@@H]3O)[C@H]3COC(=O)[C@H]23)OCO4)cc(OC)c1O | 0.871 µM [falling, full curve] | 5.49 µM [falling, partial curve] | 0.2 | -0.348 | 4.69 µM [falling, full curve] | -0.956 | 4.18 µM [falling, full curve] |
| CC(C)n1cnc2c(NCCc3ccc(O)cc3)nc(-c3csc4ccccc34)nc21 | 24.5 µM [falling, single point] | 15.5 µM [falling, partial curve] | 0.305 | -0.539 | 33.2 µM [falling, single point] | -0.351 | 14.8 µM [falling, partial curve] |
| COc1c(C)cnc(Cn2cnc3c(Cl)nc(N)nc32)c1C | 0.776 µM [falling, full curve] | 0.616 µM [falling, full curve] | -0.543 | -1 | 0.148 µM [falling, partial curve, poor fit] | -1.29 | 0.148 µM [falling, full curve] |
| CC[C@H](CO)Nc1nc(NCc2ccccc2)c2ncn(C(C)C)c2n1 | 24.5 µM [falling, single point] | 24.5 µM [falling, single point] | 0.323 | -0.0134 | 20.9 µM [falling, partial curve] | 0.0616 | 23.5 µM [falling, partial curve] |
| O=C(O)c1ccc2cc(-c3ccc(O)c(C45CC6CC(CC(C6)C4)C5)c3)ccc2c1 | 0.174 µM [falling, full curve] | 0.275 µM [falling, full curve] | 0.00617 | -1.91 | 1.48 µM [falling, full curve] | -0.635 | 2.96 µM [falling, full curve] |
| Cn1c(=O)c(F)c(Nc2ccc(I)cc2F)c2c(=O)n(C[C@@H](O)CO)cnc21 | 0.49 µM [falling, full curve, poor fit] | 0.0309 µM [falling, full curve, poor fit] | -2.15 | -0.612 | 18.7 µM [falling, partial curve] | -0.169 | 18.7 µM [falling, partial curve] |
| O=C1CSC(=O)N1C(CCc1ccncc1)COc1ccc(-c2cccc([N+](=O)[O-])c2)cc1 (centres undefined) | 2.19 µM [falling, full curve, poor fit] | 2.75 µM [falling, full curve, poor fit] | 1.19 | -0.394 | 7.43 µM [falling, full curve] | -0.344 | 33.2 µM [falling, single point] |
| COCCOC(=O)C1=C(C)NC2=C(C(=O)CC(c3ccccc3OC)C2)C1c1cccc(O)c1 (centres undefined) | 19.5 µM [falling, single point] | 1.23 µM [falling, full curve, poor fit] | -1.07 | 0.108 | 18.7 µM [falling, partial curve] | -0.174 | 20.9 µM [falling, single point] |
| C=CC(=O)N1CCc2ccc(-n3c(=O)ccc4cnc5ccc(-c6cnn(C)c6)cc5c43)cc21 | 1.9 µM [falling, full curve] | 2.13 µM [falling, full curve] | 0.313 | -0.897 | 5.26 µM [falling, partial curve] | 0.00487 | 5.9 µM [falling, full curve] |
| Cc1ccc(NC(=O)c2ccc(CN3CCN(C)CC3)cc2)cc1Nc1nc(-c2cccnc2)cs1 | 15.5 µM [falling, single point] | 17.4 µM [falling, single point] | 0.0509 | 0.0188 | 18.7 µM [falling, partial curve] | 0.393 | 26.4 µM [falling, partial curve] |

Source: PubChem BioAssay (NCATS)
